# The supplement of paper PMC3334620
# The full ranking holds about 33,000 sequences; the median of “E-score (-0.5 to 0.5)” is about -0.032, and the highest 2% start at about 0.36. This is one part of the list.
# Biological target: T1, Sko1 (UniProt Q02100)
# T1 sequence: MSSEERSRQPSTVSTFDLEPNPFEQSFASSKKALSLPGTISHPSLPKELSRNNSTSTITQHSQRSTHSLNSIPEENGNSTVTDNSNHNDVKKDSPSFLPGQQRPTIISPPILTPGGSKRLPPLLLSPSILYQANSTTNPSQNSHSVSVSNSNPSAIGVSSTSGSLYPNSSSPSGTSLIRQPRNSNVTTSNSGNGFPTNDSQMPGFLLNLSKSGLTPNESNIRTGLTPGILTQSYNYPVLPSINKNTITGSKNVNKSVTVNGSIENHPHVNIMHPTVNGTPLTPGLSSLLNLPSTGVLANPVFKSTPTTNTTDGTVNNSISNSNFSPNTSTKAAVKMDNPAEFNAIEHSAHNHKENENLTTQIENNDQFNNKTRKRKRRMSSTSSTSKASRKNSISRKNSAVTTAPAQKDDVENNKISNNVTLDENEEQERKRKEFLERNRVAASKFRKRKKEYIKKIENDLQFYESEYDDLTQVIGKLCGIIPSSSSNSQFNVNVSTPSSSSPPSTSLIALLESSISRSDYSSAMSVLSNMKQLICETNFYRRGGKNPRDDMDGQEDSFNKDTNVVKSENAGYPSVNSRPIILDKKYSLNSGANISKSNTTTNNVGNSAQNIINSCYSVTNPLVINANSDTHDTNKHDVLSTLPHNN
# Assay: PBM E-score (8-mer binding enrichment) (E-score (-0.5 to 0.5)); higher = stronger / more preferred TF binding; most listed sequences are background and not binding sites
# Details: protein concentration: 200 nM; construct: GST-full length
# Method: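 Universal 'all 10-mer' protein binding microarrays (Agilent AMADID 015681) probed with GST-tagged S. cerevisiae TFs (full-length or DBD) made by in vitro transcription/translation (PURExpress), about 100-200 nM. Bound TF was detected with fluorescent anti-GST. Each ungapped 8-mer (which stands for itself and its reverse complement) is scored by the PBM enrichment score (E-score), a modified Wilcoxon-Mann-Whitney statistic from -0.5 to +0.5, computed with the Universal PBM Analysis Suite. Scale: above 0.35 generally sequence-specific binding.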
row,Sequence,PBM E-score
1,GAGTATCC,-0.251
2,ATGCTGTA,0.0153
3,CATAGACC,-0.0132
4,GGGATCTA,-0.138
5,ATGATCAG,0.08
6,CAGTAGTA,-0.0279
7,GAGTATCA,0.0179
8,TCGCATCA,0.267
9,ATGTGAAA,0.152
10,ACCACCAA,-0.228
11,ACAATTCT,0.142
12,AAGTGCTC,-0.102
13,CTCAGTGA,-0.0446
14,GCTGTAGA,-0.176
15,ATCCGCAT,0.115
16,CTAGAACC,-0.118
17,AAACTTGT,0.157
18,CGATCTCA,-0.156
19,GGGCCGAA,-0.241
20,CCCCGAGG,-0.347
21,CGGTTAGA,-0.144
22,ACGTTCTG,0.256
23,ACATTGCA,0.044
24,CATGAAGC,-0.134
25,AACGCCCG,-0.151

row,Sequence,PBM E-score
1,ACGCAATA,0.45
2,GATGGTCC,-0.0569
3,CCAGGACA,-0.284
4,TATGTTGA,0.0854
5,GACGTCCA,0.331
6,AGTCAAGG,-0.216
7,ACACTTAC,0.201
8,GCTCGAAC,0.156
9,GCGAGGAA,-0.045
10,GGCTCCAC,-0.348
11,AACAGAGG,-0.205
12,ACTCACAC,0.0487
13,GTCCAAAC,-0.0821
14,AAATAGAC,0.0131
15,GTACCATA,0.14
16,AGAGGTTG,-0.169
17,CGTACGTC,0.45
18,ATAAAGCG,0.141
19,AGTTCGCG,-0.0222
20,CCGTCCGC,-0.269
21,GATGAGAA,0.012
22,AAGCAACA,0.0352
23,CAGGGTGC,-0.361
24,GGCCCCGA,-0.19
25,GAACCAGA,-0.2

row,Sequence,PBM E-score
1,AGATAGAG,-0.0489
2,CAAGTTCC,-0.0324
3,ACTGTAAC,-0.01
4,ACGCATCA,0.308
5,CAGTTGAA,0.00732
6,AAGTAGCG,0.0298
7,CGGTCAAG,-0.243
8,ATGGCACC,-0.269
9,AGTTTTAC,0.0669
10,CTTGACCA,-0.297
11,CGCGTTGC,0.209
12,CGGGTGCC,-0.319
13,GGGGGTCA,-0.366
14,TGTTTGAA,0.107
15,AGAATTCG,0.0226
16,ACGTGGTG,0.376
17,GACGCGTC,0.275
18,CGGCTAAA,0.0623
19,AACATGCG,0.0748
20,CCTAACGA,0.0621
21,AAAAAGAT,0.0678
22,AGGAAGTA,-0.199
23,CTCCCCGC,0.0782
24,AGGATGCG,-0.0291
25,ACTAGAAG,-0.0995

row,Sequence,PBM E-score
1,GTTCCGTA,0.0787
2,GTATACCA,-0.0338
3,AAACACTA,0.196
4,AAAAGGGA,-0.218
5,CGCGTTGA,0.088
6,CCGAAGAC,-0.112
7,ATCCAGGC,-0.312
8,CTCTAGCC,-0.238
9,GGAAGCCC,-0.194
10,CTCGCCGC,-0.178
11,CGTAGAGA,0.154
12,AACCCGAG,-0.278
13,GGTCCCTA,-0.256
14,CGATATAC,0.0326
15,GCCCTCAA,-0.11
16,CTGTCGTA,0.282
17,ACCGGAGA,-0.156
18,GTTTTACA,0.0266
19,CTCTATTC,-0.141
20,GTAATGAC,0.399
21,ATCCACGC,-0.0735
22,ACGTGCTA,0.352
23,CACTGCGA,0.135
24,CTTCTCAA,-0.04
25,GTAAGAGA,0.143

row,Sequence,PBM E-score
1,AGGAGACA,0.0164
2,CTGGGTTC,-0.145
3,ACCTTTAT,-0.00087
4,GCGTACCC,-0.00205
5,CAATTCGC,0.11
6,GGCGGAGA,-0.188
7,GCATCGGC,-0.144
8,GTAGGTTA,0.148
9,GTCTAAGA,0.0886
10,GTGGTGGA,-0.0823
11,CCCACAGA,0.0156
12,ATCAGATA,-0.0378
13,CGGATAGA,0.0779
14,ATCTTAGG,-0.229
15,AACCTCGT,0.035
16,AGACTAGG,-0.118
17,GGTACCTA,-0.00748
18,CGATTAGA,0.162
19,ACCCCCCA,-0.267
20,CGACTGAA,-0.111
21,CTGTACTC,-0.332
22,ACGCTTCC,-0.0137
23,ACAATGGA,0.0553
24,CGCTCCGA,-0.137
25,GGTGGCCA,-0.0724

row,Sequence,PBM E-score
1,GAAAGATA,0.228
2,CGTACTAA,0.334
3,AGTGGGCG,-0.0257
4,AATCCGAC,0.0424
5,CAAGCGTG,-0.0414
6,TCTATACA,-0.071
7,GACTAAAC,0.0308
8,CCGTCCCA,-0.0971
9,ATGCTCGA,0.00694
10,ATGATAAT,0.205
11,GGCCTGGA,-0.364
12,CACAAGTC,-0.149
13,CTTCGCAA,0.133
14,GGGCCATA,-0.18
15,TATAGCGA,0.00722
16,ACGGATAC,0.125
17,CTTTGACA,0.0712
18,CACCAGCC,-0.202
19,ACCGGTAG,-0.399
20,AAACATGA,0.168
21,TCTCTTAA,0.0633
22,AAAGTGGC,-0.0872
23,GATGGGTA,-0.0503
24,AGTGTCCC,-0.212
25,GCTCATAA,-0.0651

row,Sequence,PBM E-score
1,ATCAGGTC,-0.138
2,AATAATCG,0.115
3,GCGACTAA,0.0128
4,CGGTTGTC,-0.0935
5,GCCTGTAA,-0.205
6,ATATCTAC,0.0646
7,ATCTTCCA,0.0587
8,AGTTATAG,0.104
9,CCCAGGCC,-0.264
10,AGCTCGAC,0.0759
11,ATTACCTA,0.293
12,CGGGTAGC,-0.343
13,ATATAGCC,0.0744
14,ACGTTTGA,0.299
15,GCCAGAAC,-0.282
16,CTTGGCAC,-0.0128
17,CTTGGCCA,-0.115
18,AGCTTTAC,0.105
19,AGGAAGAA,-0.0819
20,CGTTGACA,0.0275
21,GAAAGAAC,-0.0885
22,ACGGGGAC,-0.287
